# Source: the supplement of paper PMC8728848
# Some of the results follow.
# B1: SP16664D-bth-476-27-476 (Bacteroides thetaiotaomicron) (protein)
# chain: DDLEVGKNIDESAYSGIYENNAYLRDGKSNLVSKVVELHGETYATTVKMGLSKTPNTATSAKVKIDAAYLETYNKAHNTDFALYPQDLVTFANEGILTVNANTKSAEVEMTIRAGEGLQEDKTYAIPVAISDQSSDITIKDEDAKHCIYLVKDMRNAGDAYKGEGVMQGYLFFEVNDVNPLNTLSFQLENGKLLWDVVVLFAANINYDAEAGRPRVQCNPNVQYLLDNNETLLQPLRRRGVKVLLGLLGNHDITGLAQLSEQGAKDFAREVAQYCKAYNLDGVNYDDEYSNSPDLSNPSLTNPSTAAAARLCYETKQAMPDKLVTVFDWGQMYGVATVDGVDAKEWIDIVVANYGSAAYPIGQMTKKQCSGISMEFNLGGGGSLSASKAQSMIDGGYGWFMGFAPSPAKYGSVFSRLQGGGEVLYGSNVAAPTIFYKKNDPTPYKYPDDL
# Experiments:
# Assay in all cases: glycan array binding signal (z-score within array); higher = stronger binding
# Details in all cases: glycan notation: IUPAC condensed, linker removed
# [1] = target: Gal(b1-3)GalNAc(b1-3)Gal(a1-4)Gal(b1-4)Glc
# How it was run: (§1)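 Glycan array data were curated from 3228 arrays in the Consortium for Functional Glycomics database and kept only where the protein sequence was available. Glycan names were converted to IUPAC-condensed notation, and columns mapping to the same glycan were averaged. The binding signal is a within-array Z-score, averaged across arrays of the same protein sequence at different concentrations or buffers and across linkers. Negative Z-scores can be read as non-binding.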
# [2] = target: Gal(b1-3)GalNAc(b1-4)Gal(b1-4)Glc
# How it was run: as §1
# [3] = target: Gal(b1-3)GalNAc(b1-4)[Neu5Ac(a2-3)]Gal(b1-4)Glc
# How it was run: as §1
# Gal(b1-3)GlcNAc = target: Gal(b1-3)GlcNAc
# How it was run: as §1
# [4] = target: Gal(b1-3)GlcNAc(a1-3)Gal(b1-4)GlcNAc
# How it was run: as §1
# [5] = target: Gal(b1-3)GlcNAc(a1-6)Gal(b1-4)GlcNAc
# How it was run: as §1
# Gal(b1-3)GlcNAc(b1-2)Man = target: Gal(b1-3)GlcNAc(b1-2)Man
# How it was run: as §1
# [6] = target: Gal(b1-3)GlcNAc(b1-2)Man(a1-3)[Gal(b1-3)GlcNAc(b1-2)Man(a1-6)]Man(b1-4)GlcNAc(b1-4)GlcNAc
# How it was run: as §1
# [7] = target: Gal(b1-3)GlcNAc(b1-2)Man(a1-3)[Gal(b1-3)GlcNAc(b1-2)Man(a1-6)]Man(b1-4)GlcNAc(b1-4)[Fuc(a1-6)]GlcNAc
# How it was run: as §1
# [8] = target: Gal(b1-3)GlcNAc(b1-2)Man(a1-3)[GlcNAc(b1-4)][Gal(b1-3)GlcNAc(b1-2)Man(a1-6)]Man(b1-4)GlcNAc(b1-4)GlcNAc
# How it was run: as §1
# [9] = target: Gal(b1-3)GlcNAc(b1-2)[Gal(b1-3)GlcNAc(b1-6)]Man(a1-6)[Gal(b1-3)GlcNAc(b1-2)Man(a1-3)]Man(b1-4)GlcNAc(b1-4)GlcNAc
# How it was run: as §1
# [10] = target: Gal(b1-3)GlcNAc(b1-3)Gal(b1-3)GlcNAc
# How it was run: as §1
# [11] = target: Gal(b1-3)GlcNAc(b1-3)Gal(b1-4)Glc
# How it was run: as §1
# [12] = target: Gal(b1-3)GlcNAc(b1-3)Gal(b1-4)GlcNAc
# How it was run: as §1
# [13] = target: Gal(b1-3)GlcNAc(b1-3)Gal(b1-4)GlcNAc(b1-2)Man(a1-3)[Gal(b1-3)GlcNAc(b1-3)Gal(b1-4)GlcNAc(b1-2)Man(a1-6)]Man(b1-4)GlcNAc(b1-4)GlcNAc
# How it was run: as §1
# [14] = target: Gal(b1-3)GlcNAc(b1-3)Gal(b1-4)GlcNAc(b1-2)[Gal(b1-3)GlcNAc(b1-3)Gal(b1-4)GlcNAc(b1-6)]Man(a1-6)[Gal(b1-3)GlcNAc(b1-3)Gal(b1-4)GlcNAc(b1-2)Man(a1-3)]Man(b1-4)GlcNAc(b1-4)[Fuc(a1-6)]GlcNAc
# How it was run: as §1
# [15] = target: Gal(b1-3)GlcNAc(b1-3)Gal(b1-4)GlcNAc(b1-3)Gal(b1-4)GlcNAc(b1-2)[Gal(b1-3)GlcNAc(b1-3)Gal(b1-4)GlcNAc(b1-3)Gal(b1-4)GlcNAc(b1-6)]Man(a1-6)[Gal(b1-3)GlcNAc(b1-3)Gal(b1-4)GlcNAc(b1-3)Gal(b1-4)GlcNAc(b1-2)Man(a1-3)]Man(b1-4)GlcNAc(b1-4)[Fuc(a1-6)]GlcNAc
# How it was run: as §1
# [16] = target: Gal(b1-3)GlcNAc(b1-3)Gal(b1-4)GlcNAc(b1-6)[Gal(b1-3)GlcNAc(b1-3)]Gal(b1-4)Glc
# How it was run: as §1
# [17] = target: Gal(b1-3)GlcNAc(b1-3)Gal(b1-4)[Fuc(a1-3)]GlcNAc
# How it was run: as §1
# [18] = target: Gal(b1-3)GlcNAc(b1-3)Gal(b1-4)[Fuc(a1-3)]GlcNAc(b1-6)[Gal(b1-3)GlcNAc(b1-3)]Gal(b1-4)Glc
# How it was run: as §1
# [19] = target: Gal(b1-3)GlcNAc(b1-3)GalNAc
# How it was run: as §1
# [20] = target: Gal(b1-3)GlcNAc(b1-6)Gal(b1-4)GlcNAc
# How it was run: as §1
# [21] = target: Gal(b1-3)GlcNAc(b1-6)GalNAc
# How it was run: as §1
# [22] = target: Gal(b1-3)GlcNAc(b1-6)[Gal(b1-3)]GalNAc
# How it was run: as §1
# Gal(b1-3)GlcNAc6S = target: Gal(b1-3)GlcNAc6S
# How it was run: as §1
# [23] = target: Gal(b1-3)[Fuc(a1-4)]GlcNAc
# How it was run: as §1
# [24] = target: Gal(b1-3)[Fuc(a1-4)]GlcNAc(b1-2)Man
# How it was run: as §1
# [25] = target: Gal(b1-3)[Fuc(a1-4)]GlcNAc(b1-2)Man(a1-3)[Gal(b1-3)[Fuc(a1-4)]GlcNAc(b1-2)Man(a1-6)]Man(b1-4)GlcNAc(b1-4)[Fuc(a1-6)]GlcNAc
# How it was run: as §1
# [26] = target: Gal(b1-3)[Fuc(a1-4)]GlcNAc(b1-3)Gal(b1-3)[Fuc(a1-4)]GlcNAc
# How it was run: as §1
# [27] = target: Gal(b1-3)[Fuc(a1-4)]GlcNAc(b1-3)Gal(b1-4)[Fuc(a1-3)]GlcNAc
# How it was run: as §1
# [28] = target: Gal(b1-3)[Fuc(a1-4)]GlcNAc(b1-6)GalNAc
# How it was run: as §1
# [29] = target: Gal(b1-3)[GlcNAc(b1-6)]GalNAc
# How it was run: as §1
# [30] = target: Gal(b1-3)[Neu5Ac(a2-6)]GalNAc
# How it was run: as §1
# [31] = target: Gal(b1-3)[Neu5Ac(a2-6)]GlcNAc(b1-4)Gal(b1-4)Glc
# How it was run: as §1
# [32] = target: Gal(b1-3)[Neu5Ac(b2-6)]GalNAc
# How it was run: as §1
# Gal(b1-4)Gal = target: Gal(b1-4)Gal
# How it was run: as §1
# [33] = target: Gal(b1-4)GalNAc(a1-3)[Fuc(a1-2)]Gal(b1-4)GlcNAc
# How it was run: as §1
# [34] = target: Gal(b1-4)GalNAc(b1-3)[Fuc(a1-2)]Gal(b1-4)GlcNAc
# How it was run: as §1
binder,measurement,setting,value
B1,glycan array binding signal (z-score),[1],-0.006
same,glycan array binding signal (z-score),[2],-0.029
same,glycan array binding signal (z-score),[3],0.156
same,glycan array binding signal (z-score),Gal(b1-3)GlcNAc,-0.121
same,glycan array binding signal (z-score),[4],-0.271
same,glycan array binding signal (z-score),[5],-0.097
same,glycan array binding signal (z-score),Gal(b1-3)GlcNAc(b1-2)Man,-0.256
same,glycan array binding signal (z-score),[6],0.116
same,glycan array binding signal (z-score),[7],-0.29
same,glycan array binding signal (z-score),[8],0.229
same,glycan array binding signal (z-score),[9],-0.162
same,glycan array binding signal (z-score),[10],0.152
same,glycan array binding signal (z-score),[11],-0.236
same,glycan array binding signal (z-score),[12],-0.078
same,glycan array binding signal (z-score),[13],-0.094
same,glycan array binding signal (z-score),[14],-0.162
same,glycan array binding signal (z-score),[15],0.144
same,glycan array binding signal (z-score),[16],-0.214
same,glycan array binding signal (z-score),[17],-0.207
same,glycan array binding signal (z-score),[18],-0.153
same,glycan array binding signal (z-score),[19],0.061
same,glycan array binding signal (z-score),[20],-0.253
same,glycan array binding signal (z-score),[21],-0.211
same,glycan array binding signal (z-score),[22],-0.035
same,glycan array binding signal (z-score),Gal(b1-3)GlcNAc6S,0.041
same,glycan array binding signal (z-score),[23],-0.135
same,glycan array binding signal (z-score),[24],0.176
same,glycan array binding signal (z-score),[25],0.054
same,glycan array binding signal (z-score),[26],1.49
same,glycan array binding signal (z-score),[27],-0.036
same,glycan array binding signal (z-score),[28],0.357
same,glycan array binding signal (z-score),[29],-0.12
same,glycan array binding signal (z-score),[30],-0.04
same,glycan array binding signal (z-score),[31],-0.191
same,glycan array binding signal (z-score),[32],-0.137
same,glycan array binding signal (z-score),Gal(b1-4)Gal,-0.161
same,glycan array binding signal (z-score),[33],-0.253
same,glycan array binding signal (z-score),[34],-0.183
